Measurements reported in the supplement of paper PMC8674133.
Changes are numbered by the printed parent chain. Recombinant human monoclonal antibodies (heavy:light variable regions). ELISA EC50 on the named antigen, from 10 µg/ml down; IC50 / IC90 against spike pseudovirus on 293T-ACE2 cells, 48 h; lower = stronger. Calls: IC50 above 1,000 ng/ml = non-neutralizing; EC50 above 2,000 ng/ml = non-binder. The source prints 1000 for neutralization that was not reached; it is given as >1000 ng/ml. A few antibodies were first reported in earlier work of the same group.

B1: C2017 (protein)
chain 1: QVQLVQSGAEVKKPGASVKVSCKASGYTFTSYDINWVRQATGQGLEWMGWMNPNSGNTGYAQKFQGRVTITRNTSISTAYMELSSLRSEDTAVYYCARGTYCSSTSCYTRDWFDPWGQGTLVTVSS
chain 2: SYELTQPPSVSVAPGQTARITCGGNNIGSKSVHWYQQKPGQAPVLVVYDDSDRPSGIPERFSGSNSGNTATLTISRVEAGDEADYYCQVWDSSSDPYYVFGTGTKVTVL
B2: C1341 (protein)
chain 1: EVQLVESGGGLVQPGGSLRLSCAASGFTVSSNYMTWVRQAPGKGLEWVSVIYSGGSTYYADSVKGRFTISRDSSKNTLYLQMNSLRVEDTAVYYCASLEQLTYYFDYWGQGTLVTVSS
chain 2: SYELTQPPSVSVAPGKTARITCGGNNIGSKSVHWYQQKPGQAPVLVVYDDSDRPSGIPERFSGSNSGNTATLTISRVEAGDEADYYCQVWDSFIDRHAWVFGGGTKLTVL
B3: C1345 (protein)
chain 1: EVQLVESGGGLVQPGRSLRLSCAASGFTFDDYAMHWVRQAPGKGLEWVSGISWNSGSIGYADSVKGRFTISRDNAKNSLYLQMNSLRAEDTALYYCATQHIRFLEWGRDELYSGMDVWGQGTTVTVSS
chain 2: IRMTQSPSSLSASVGDRVTITCRASQGISNYLAWYQQKPGKVPKLLIYAASTLQSGVPSRFSGSGSGTDFTLTISSLQPEDVATYYCQKYNSAPFTFGPGTKVDIK
B4: C1333 (protein)
chain 1: VQLVESGGGVVQPGRSLRLSCAASGFTFSSYGMHWVRQAPGKGLEWVAVISYDGSNKYYADSVKGRFTISRDNSKNTLYLQMNSLRTEDTAVYYCARGWFGEEVGYYYFGLDVWGQGTTVTVSS
chain 2: QSVLTQPPSVSGAPGQRVTISCTGSSSNIGAAYDVHWYQQLPGTAPKLLIYGNSNRPSGVPDRFSGSKSGTSASLAITGLQAEDEADYYCQSYDSSLSGWVFGGGTKLTVL
B5: C1337 (protein)
chain 1: EVQLVESGGGLVQPGRSLRLSCAASGFTFDDYAMHWVRQGPGKGLEWVSGISWNSGTIGYADSVKGRFTISRDNAENSLYLQMNSLRPEDTALYYCVKDYHSVRYCSSTSCYRALDDYYGMDVWGQGTTVTVSS
chain 2: QSVLTQPPSVSGAPGQRVTISCTGSSSNIGAGYDVHWYQQLPGTAPQLLIYANINRPSGVPDRFSGSKSGTSASLAITGLQAEDEADYYCQSYDSSLSGSRVVFGGGTKLTVL
B6: C1335 (protein)
chain 1: EVQLVQSGAEVKKPGESLKISCKGSGYSFTSCWIGWVRQMPGKGLEWMGIIWPGDSDTRYSPSFQGQVTISVDKSISTAYLQWSSLQASDTAMYYCARSETYVMPPDYWGQGTLVTVSS
chain 2: QSVLTQPPSASGTPGQRVTISCSGSSSNIGSNAVNWYRQLPGTAPKLLIYNNYQRPSGVPDRFSGSKSGTSASLAISGLQSEAEADYYCAAWDDSLNGWVFGGGTQLTVL
B7: C1372 (protein)
chain 1: QVQLQESGPGLVKPSETLSLTCTVSGGSISSYYWSWIRQPPGKGLEWIGYIYYSGSTNYNPSLKSRVTISVDTSKNQFSLKLSSVTAADTAVYYCARGGSTLWFGSEPNFDYWGQGTLVTVSS
chain 2: NFMLTQPHSVSESPGKTVTISCTCSSGSIASNYVQWYQQRPGSSPTTVIYEDNQRPSGVPDRFSGSIDSSSNSASLTISGLKTEDEADYYCQSYDSSNVVFGGGTKLTVL
B8: C1332 (protein)
chain 1: VQLVESGGGVVQPGRSLRLSCAASGFTFSSYGMHWVRQAPGKGLEWVAVISYDGSNKYYADSVKGRFTISRDNSKNTLYMQMNSLRAEDTAVYYCAKAPRGYYDRSGYYRIQDNFDYWGQGTLVTVSS
chain 2: AIRMTQSPSSLSASVGDRVTITCRASQGISSALAWYQQKPGKAPKLLISDASSLESGVPSRFSGSGSGTDFTLTISSLQPEDFATYYCQQFNGYPLTFGGGTKVEIK
B9: C1344 (protein)
chain 1: EVQLVESGGGLIQPGGSLRLSCAASGFTVSSNYMSWVRQAPGKGLEWVSIIYSGGSTFYADSVKGRFTISRDSSKNTLYLQINSLRAEDTAVYYCARDVPRNSGGYWGQGTLVTVSS
chain 2: IRMTQSPSSLSASVGDRVTITCQASQDISNYLNWYQQKPGKAPKLLIYDASNLETGVPSRFSGSGSGTDFTFTISSLQPEDIATYYCQQYDNLPITFGQGTRLEIK
B10: C1336 (protein)
chain 1: QVQLVESGGGVVQPGRSLRLSCAASGFTFRSFGMHWVRQAPGKGLEWVAVIWYDGSNKYYADSVKGRFTISRDNSKNTLYLHMNSLRAEDTAVYYCARDGPANQVDEQLFTITDYYYGMDVWGQGTTVTVSS
chain 2: QSALTQPASVSGSPGQSITISCTGTSSDVGGYNYVSWYQHHPGKAPKLMIYEVSNRPSGVSNRFSGSKSGNTASLTISGLQAEDEADYYCSSYTSSSTYVFGTGTKVTVL
B11: C1347 (protein)
chain 1: VQLVESGGGVVQPGRSLRLSCAASGFTFSNYGMHWVRQAPGKGLEWVAVISYDGSNKYYADSVKGRFTISRDNSKNTLYLQMNSLRAEDTAVYYCAKGHDFGAPDYWGQGTLVTVSS
chain 2: B10 chain 2 with C22Y, G31S, Y34L, H40Q, V53G, N55K, S91C, T94A, S95V, K106E
B12: C1334 (protein)
chain 1: EVQLVESGAEVKKPGESLKISCKGSGYSFTSNWIGWVRQMPGKGLEWMGIIYPGDSDTRYSPSFQGQVTISADKSISTAYLQWSSLKASDTAMYYCARTYGSGSYSDFDYWGQGTLVTVSS
chain 2: QSVLTQPPSASGTPGQRVSISCSGSSSNIGSNTVNWYQQLPGTAPKLLIYNNNQRPSGVPDRFSGSKSGTSASLAISGLQSEDEADYYCAAWDDSLNGRGVFGGGTKLTVL
B13: C1338 (protein)
chain 1: EVQLVETGGGLIQPGGSLRLSCVASGVTVSSNYMNWVRQAPGKGLEWVSVIYSGGSTFYADSVKGRFTISRDNSKNTLYLQMNSLRAEDTAVYYCARADDSDAFDIWGQGTMVTVSS
chain 2: DIQMTQSPSTLSASVGDRVTITCRASQSISNWLAWYQQKPGKAPKFLIHKASSLESGVPSRFSGSGSGTEFTLTISSLQPDDFATYYCQQYNNYPRTFGQGTKVEIK
B14: C1346 (protein)
chain 1: QVQLQESGPGLVKPSDTLSLTCTVSGDSIKNYYWNWIRQPPGKRLEWIASVYYSGTTKYTPSLKSRATITIDTSKNQFSLTLKSFSAADTAVYFCARSPAWTRDYQFDQWGQGTLVTVSS
chain 2: SYELTQPPSVSVSPGQTARITCSGDALPRRFAYWYQQKSGQAPVMIIYEGSKRPSGIPERFSGSSSGTVATLTITGAQVEDEADYFCYSRDDSDDYRVFGGGTKLTVL
B15: C2016 (protein)
chain 1: EVQLLESGGGLVQPGGSLRLSCAASGFTFSSYAMSWVRQAPGKGLEWVSGISSSGGRTYHADSVKGRFTISRDNSKNTLYLQMNSLRAEDTAVYYCTLGSGSSSLGNNYWGQGTLVTVSS
chain 2: QTVVTQEPSLTVSPGGTVTLTCGSSTGAVTRGHYPYWFQQRPGQAPRTLIYDTSNKHSWTPARFSGSLLGAKAALTLSGALPEDEADYFCSLSYSGAHVVFGGGTKLTVL
B16: C1371 (protein)
chain 1: QLQLQESGPGLVKPSETLSLTCTVSGGSISSGAYYWGWIRQPPGKGLEWIGNIYYSGSTYYNPSLKTRVTISLDTSKNQFSLKLNSVTAADTAVYYCARQNGLCDYWGQGTLVTVSS
chain 2: DIQMTQSPSSLPASVGDRVTITCRASQGISNSLAWYQQNPGKAPKLLVYAASTLESGVPSRFSGSGSGTDFTLTISSLQPEDFATYYCQQYYSPPPLTFGQGTKLEIK

What was measured:
[1] = biological target: SARS-CoV-2 Wuhan-Hu-1 spike pseudovirus; test: pseudovirus neutralization IC50; higher = weaker neutralization
Experimental: (§1)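 Single-round luciferase reporter pseudovirus mixed with antibody dilutions and put on 293T-ACE2 cells for 48 h; signal relative to no-antibody wells, four-parameter fit.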

[2] = biological target: SARS-CoV-2 Wuhan-Hu-1 spike pseudovirus; test: pseudovirus neutralization IC90; higher = weaker neutralization
Experimental: as §1

[3] = biological target: SARS-CoV-2 Wuhan-Hu-1 spike receptor-binding domain; test: ELISA binding EC50; higher = weaker binding; ELISA of recombinant human antibody on coated antigen, from 10 µg/ml in fourfold dilutions; four-parameter fit.

Binder	pseudovirus neutralization IC50 [1]	pseudovirus neutralization IC90 [2]	ELISA binding EC50 [3]
B1	> 1 µg/mL	> 1 µg/mL	0.00189 µg/mL
B2	0.658 µg/mL	> 1 µg/mL	0.0014 µg/mL
B3	> 1 µg/mL	> 1 µg/mL	0.0022 µg/mL
B4	0.155 µg/mL	> 1 µg/mL	0.00289 µg/mL
B5	0.0443 µg/mL	> 1 µg/mL	0.00123 µg/mL
B6	0.0424 µg/mL	> 1 µg/mL	0.00261 µg/mL
B7	> 1 µg/mL	> 1 µg/mL	0.00143 µg/mL
B8	0.00868 µg/mL	0.111 µg/mL	0.00236 µg/mL
B9	0.0181 µg/mL	0.0895 µg/mL	0.00262 µg/mL
B10	> 1 µg/mL	> 1 µg/mL	0.00355 µg/mL
B11	0.00305 µg/mL	0.0368 µg/mL	0.00113 µg/mL
B12	0.214 µg/mL	> 1 µg/mL	0.00316 µg/mL
B13	> 1 µg/mL	> 1 µg/mL	> 10 µg/mL
B14	> 1 µg/mL	> 1 µg/mL	> 10 µg/mL
B15	> 1 µg/mL	> 1 µg/mL	0.0145 µg/mL
B16	0.00505 µg/mL	0.0298 µg/mL	0.00178 µg/mL
